Data as given in PubChem BioAssay AID2546 (National Center for Advancing Translational Sciences (NCATS), 2010).
The whole screen tested about 310,000 compounds, of which about 11,000 (3.5%) were called active. This list was built around the results that the source calls inconclusive (neither active nor inactive); the mix of calls is not that of the screen. Calls follow the shape of the dose curve; as a rule, active = well fitted inhibition curve with a large enough effect; inconclusive = small, poorly fitted or top-dose-only effect, or effect the other way; inactive = flat fitted curve, though single readings scatter. No potency is given beside an inconclusive call; the fits are too rough.

test: VP16 counterscreen qHTS for inhibitors of ROR gamma transcriptional activity; settings: Drosophila S2 Gal4-VP16 UAS-luciferase, luminescence, 20 h; activity, negative = inhibition: at 53.6 µM (top of the series);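 also: Gal4-VP16 expression switched on by copper sulfate through the metallothionein promoter; nearly all actives have a fitted effect of over 50% in size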
% is scaled to controls: 0 for no effect and ±100 for the full control effect; potency is read from the fitted curve at half-maximal effect; tags tell the direction and shape of the fitted curve.

| Compound | Potency | activity, negative = inhibition |
| --- | --- | --- |
| Nc1c(S(=O)(=O)O)cc(Nc2cccc3ccccc23)c2c1C(=O)c1ccccc1C2=O | inconclusive [inhibitor, partial curve] |  |
| Cc1cccc(C[C@H](C(=O)O)N2C(=O)c3ccc(C(=O)O)cc3C2=O)c1 |  | inactive: 3.34% |
| CC(C)NC(=S)n1cc(C(=O)c2cc(Cl)cc(Cl)c2O)cn1 | inconclusive [inhibitor, single point] |  |
| COc1cc(SC#N)ccc1N=Cc1c(C)[nH]n(-c2ccc(C)cc2C)c1=O | inconclusive [inhibitor, single point] |  |
| O=C1/C(=C/c2ccccn2)SC(=S)N1N1CCOCC1 |  | inactive: 12.1% |
| CN(CCOc1ccc(Cl)cc1)c1ccc(S(=O)(=O)N2CCCCC2)cn1 |  | inactive: -2.57% |
| CC(C)C(=O)NC(=S)Nc1ccc(S(=O)(=O)N2CCCC2)cc1 | inconclusive [inhibitor, single point] |  |
| C=CCn1c(-c2ccccc2[N+](=O)[O-])n[nH]c1=S | inconclusive [inhibitor, single point] |  |
| Cc1cc(Cl)ccc1OCCn1cncn1 |  | inactive: -7.5% |
| COc1ccc(NC(=S)N(CCCN2CCOCC2)Cc2cn(C)c3ccccc23)cc1 | inconclusive [inhibitor, single point] |  |
| COCCNC(=S)Nc1ccccc1Cc1ccccc1 | active: 10 µM |  |
| CC(C)(C)OC(=O)NCCCCCNC(=O)c1[nH]cnc1C(=O)N[C@@H](CCCCNC(=O)OC(C)(C)C)C(=O)OC(C)(C)C | inconclusive [inhibitor, partial curve] |  |
| COc1cccc(NC(=O)CSc2nc3ccccc3c(=O)n2CCCC(=O)NCC2CCCO2)c1 (stereo not given) |  | inactive: -5.62% |
| CCn1c(SCC(=O)Nc2ccc(-c3nc4ccc(C)cc4s3)cc2)nnc1-c1ccccc1 | active: 17.8 µM |  |
| COc1ccc2cc(C(C)C(=O)NC3CCC(O)CC3)ccc2c1 (stereo not given) |  | inactive: 0.562% |
| COc1cccc2c(=O)c(C/C=C(/C)Cl)c(C)[nH]c12 |  | inactive: -3.76% |
| O=C(c1ccc2snnc2c1)N1CCN(c2ccccn2)CC1 |  | inactive: 4.17% |
| Cn1cc(NC(=O)Nc2ccc(C(F)(F)F)cc2)c(C(F)(F)F)n1 |  | inactive: -3.51% |
| O=C(Nc1cnc2ccccc2c1)c1ccncc1 |  | inactive: -41% |
| O=C(Nc1ccccc1)Nc1ccc(C(=O)N2CCOCC2)cc1 | inconclusive [inhibitor, single point] |  |
| CC(=O)C1=C(c2ccccc2)OC(N)=C(C#N)C1c1ccc(O)cc1 (stereo not given) | inconclusive [inhibitor, single point] |  |
| O=C(Cc1ccc(Cl)cc1)Nc1cc(S(=O)(=O)N2CCOCC2)ccc1N1CCCC1 |  | inactive: -4.64% |
| CN1/C(=C/C(=O)c2nc(S(C)(=O)=O)ncc2Cl)C(C)(C)c2ccccc21 | active: 5.62 µM |  |
| FC(F)(F)c1cccc(N2CCN(C(=S)NCC3CCCO3)CC2)c1 (stereo not given) | inconclusive [inhibitor, single point] |  |
| C[C@@]12CCC=C[C@H]1[C@H](c1ccc3ccccc3c1/C=C/c1ccccc1)N(Cc1ccccc1)C2=O |  | inactive: 1.61% |

| Compound | Potency | activity, negative = inhibition |
| --- | --- | --- |
| CCNc1ncc2nc(-c3ccccc3)c(=O)n(Cc3cccc(OC)c3)c2n1 |  | inactive: -9.84% |
| Cn1c(=O)c2ncn(CC(=O)NCCOCc3ccccc3Cl)c2n(C)c1=O |  | inactive: 0.085% |
| CN1CCN(C(=O)/C(C#N)=C/c2ccc(F)cc2)CC1 |  | inactive: -14.2% |
| CCCOP(=O)(c1ccc(N(C)C)cc1)C(Nc1ccccc1)c1ccc(N(C)C)cc1 (stereo not given) | inconclusive [inhibitor, partial curve, poor fit] |  |
| O=C(c1cc(-c2ccc3c(c2)OCO3)on1)N1CCCCC1 | active: 11.2 µM |  |
| CCOC(=O)C(=N/O)/C(C)=N/NC(=O)C(=O)Nc1cc(Cl)ccc1Cl | active: 22.4 µM |  |
| S=c1[nH]nc(Cc2ccccc2)n1-c1ccc(Cl)cc1 | inconclusive [inhibitor, partial curve, poor fit] |  |
| CCOC(=O)C(NC(=O)NC1CCCCC1)(c1ccccc1)C(F)(F)F (stereo not given) |  | inactive: 8.34% |
| O=C(C(Cc1ccccc1)n1cccc1)N1CCN(c2ccccc2)CC1 (stereo not given) | inconclusive [inhibitor, partial curve] |  |
| Cc1cccc(N2C(=O)CC(Sc3nnc(C)s3)C2=O)c1 (stereo not given) | inconclusive [inhibitor, single point] |  |
| S=C(NCC1COc2ccccc2O1)Nc1ccc(Br)cc1 (stereo not given) | inconclusive [inhibitor, single point] |  |
| O=C(Nc1ccccc1Cl)c1cccc(NC(=O)c2cccs2)c1 |  | inactive: -1.28% |
| COc1ccc(/C=N\NC(=O)c2ccccc2)cc1COc1ccccc1 | inconclusive [inhibitor, single point] |  |
| COc1cc(/C=N/N=C2\CC3CCC2(C)C3(C)C)ccc1O (stereo not given) | inconclusive [inhibitor, single point] |  |
| CC(C)(C)C1CCc2c(sc(NC(=O)c3cc(C4CC4)on3)c2C#N)C1 (stereo not given) | inconclusive [inhibitor, single point] |  |
| COc1ccc(C(CCNCc2ccc(N(C)C)cc2)C(C)C)cc1 (stereo not given) | inconclusive [inhibitor, single point] |  |
| Fc1ccc(NC(=S)Nc2cccc3cnccc23)cc1 | inconclusive [inhibitor, partial curve] |  |
| COc1ccc2nc3c(cc2c1)Cn1c-3nc2ccccc2c1=O | inconclusive [inhibitor, full curve] |  |
| CCOc1cc(/C=C2/C(=O)ON=C2C)ccc1O | inconclusive [inhibitor, single point] |  |
| COc1cc(/C=N/NC(=O)c2nc(-c3ccccc3)n(-c3ccccc3)n2)ccc1O |  | inactive: -5.92% |
| Cc1cc(C(=O)N/N=C/c2cccn2C)no1 |  | inactive: -1.55% |
| Cc1ccc(C2=NN(CC(=O)NCCN(CC(C)C)CC(C)C)C(=O)CC2)cc1 | inconclusive [activator, full curve, poor fit] |  |
| Cc1cc(C(=O)N/N=C/c2sccc2C)no1 | inconclusive [inhibitor, single point] |  |
| Oc1c(C(Nc2cccc(C(F)(F)F)c2)c2ccncc2)ccc2cccnc12 (stereo not given) | active: 5.62 µM |  |
| CC(=O)NCCn1c(SCc2ccc(C)cc2)nc2ccccc2c1=O |  | inactive: -3.11% |

| Compound | Potency | activity, negative = inhibition |
| --- | --- | --- |
| O=C(Nc1ccccc1)c1cc(S(=O)(=O)NCc2ccncc2)ccc1Cl | inconclusive [inhibitor, single point] |  |
| COC(=O)Cn1c(O)c(N=NC(=O)CNC(=O)c2ccc3c(c2)OCCO3)c2ccccc21 |  | inactive: -8.79% |
| CCc1ccc(NC(=O)CCCN2C(=S)NC(C)(C)CC2C)cc1 (stereo not given) | inconclusive [inhibitor, single point] |  |
| CCCCCCCOc1ccc(OC(=O)c2ccncc2)cc1 |  | inactive: -5.19% |
| CCN(CC)C(=O)CSc1nnc(-c2ccccn2)n1-c1ccccc1OC |  | inactive: -9.67% |
| COc1ccccc1/C=N\Nc1cc(C)nc(-n2nc(C)cc2C)n1 | active: 0.355 µM |  |
| CCOc1ccc(C(CC(=O)O)NC(=O)C(Sc2ccccc2)c2ccccc2)cc1 (stereo not given) |  | inactive: -0.887% |
| COc1cccc(Cn2c(=O)cnc3cnc(Nc4ccccc4)nc32)c1 | inconclusive [inhibitor, partial curve] |  |
| COc1ccc(OC)c(C(=O)/C=C/c2ccccc2C(F)(F)F)c1 | inconclusive [inhibitor, single point] |  |
| Cc1ccc(S(=O)(=O)Nc2cc(Cl)c(O)c3ncccc23)cc1 | active: 1.26 µM |  |
| O=C(N/N=C/c1ccc(O)cc1O)c1ccc(NC(=O)C2CCCCC2)cc1 | inconclusive [inhibitor, single point] |  |
| CCOC(=O)CSc1nc(C)c2cc(C)c(C)cc2n1 | inconclusive [activator, single point] |  |
| O=C(c1ccc(Cl)cc1)N1CCOc2ccccc21 | inconclusive [inhibitor, single point] |  |
| COc1ccc(N=C2C(=Nc3ccc(OC)cc3)N(c3ccccc3)C(=S)N2C(=O)c2ccc(Cl)cc2)cc1 | inconclusive [inhibitor, single point] |  |
| O=C(COc1ccccc1-c1ccccc1)N/N=C/c1ccccn1 | inconclusive [inhibitor, single point] |  |
| CC(CC(=O)N1CCN(c2cccc(Cl)c2)CC1)S(=O)(=O)c1ccc2c(c1)NC(=O)CO2 (stereo not given) | active: 14.1 µM |  |
| CCCN1C(=O)COc2ccc(-c3n[nH]c(=O)c4ccccc34)cc21 |  | inactive: -20.4% |
| CC(=O)Nc1ccc(S(=O)(=O)NCC2CCC(C(=O)NCCCN(C)Cc3ccccc3)CC2)cc1 (stereo not given) | inconclusive [inhibitor, single point] |  |
| NC(=S)N/N=C\c1ccccc1OCc1ccccc1 | active: 3.55 µM |  |
| CC1=NN(C(=O)c2ccccc2-n2cccc2)C(O)(C(F)(F)F)C1 (stereo not given) | inconclusive [inhibitor, single point] |  |
| O=C(O)c1ccc(N/N=C/c2cc3ccccc3nc2Cl)cc1 | inconclusive [inhibitor, partial curve] |  |
| Cc1ccc(-c2ccc(/C=C(\C#N)C(N)=S)o2)c([N+](=O)[O-])c1 | inconclusive [inhibitor, single point] |  |
| NC(=S)N/N=C/c1ccc(-n2nncc2-c2ccc(Cl)cc2)cc1 | inconclusive [inhibitor, single point] |  |
| CC(C)(C)c1ccc(-c2noc(CNC(=O)c3ccco3)n2)cc1 | inconclusive [inhibitor, partial curve] |  |
| O=C(c1ccc(-c2ccccc2)cc1)N1CCN(c2ccccc2)CC1 |  | inactive: 20.8% |
